About 1,700 (3.3%) of roughly 52,000 compounds were called active. Rule as the data show it: active = survival mostly below about 52% (no sharp cut-off); inactive = mostly above about 56%. The list shows a part of the results.
The compounds below were run on Wild type (assay: growth inhibition of S. aureus wild type versus tarO mutant, primary screen, teichoic acid synthesis inhibitors, RN4220, OD600 (AID 463173)). Conditions: S. aureus RN4220 wild type/DeltatarO growth, OD600, 18 h, active compounds read low, screened at 18.75 µg/mL (by protocol).

Row | SMILES | survival
1 | COc1ccc(CNC(=O)c2cnc3sc4cc(OC)ccc4n3c2=O)cc1 | inactive: 81%
2 | O=C(NCc1ccccc1Cl)C(=O)NCC(c1ccc2c(c1)OCO2)N1CCOCC1 (centres undefined) | inactive: 84%
3 | CN1C(=O)c2ccccc2N(C)C1c1ccc(F)cc1 (centres undefined) | inactive: 113%
4 | CCOc1ccccc1N(CC)C(=O)Cn1ncc2c1-c1ccccc1OC2 | inactive: 71%
5 | CCOc1ccc(NC(=O)CSc2nc(-c3ccccc3)c3cc(OCC)ccc3n2)cc1 | inactive: 85%
6 | CCOc1ccc2nc(N(Cc3cccnc3)C(=O)c3ccco3)sc2c1 | inactive: 69%
7 | O=C(c1cc(S(=O)(=O)N2CCCC2)c[nH]1)N1CCN(c2cccc(Cl)c2)CC1 | inactive: 109%
8 | O=C(CSc1nc2ccccc2c(=O)n1Cc1ccco1)OC1CCCCC1 | inactive: 108%
9 | CCC(CC)C(=O)N1CCc2cc(OC)c(OC)cc2C1COc1ccc2c(C)cc(=O)oc2c1 (centres undefined) | inactive: 71%
10 | CCCSc1ncc(Cl)c(C(=O)NCc2ccc(C)cc2)n1 | inactive: 85%
11 | COc1ccc(CNC(=O)CCS(=O)(=O)c2cc3c4c(c2)CCN4C(=O)CC3)cc1OC | inactive: 65%
12 | Cc1ccc(S(=O)(=O)N(CCO)Cc2ccccc2)cc1 | inactive: 105%
13 | Cc1cc(Cl)ccc1NC(=O)CCS(=O)(=O)c1ccc2c(c1)CC(C)N2C(=O)C1CC1 (centres undefined) | inactive: 131%
14 | CCOC(=O)c1c(C)[nH]c(CCC(=O)NCc2cc(Br)ccc2OC)c1C | inactive: 115%
15 | COc1ccc(C2C(C(=O)Nc3cccnc3)=C(C)Nc3nc(-c4ccc(OC)c(OC)c4)nn32)cc1 (centres undefined) | inactive: 143%
16 | O=C(Nc1cc(Cl)ccc1O)c1cc(-c2ccc3c(c2)OCO3)on1 | inactive: 101%
17 | Cc1c(C(=O)N2CCCC2)oc2c1-c1nn(CC(=O)NCc3ccccc3F)cc1CC2 | inactive: 90%
18 | CCN(C(=O)CSc1nnc(-c2ccccc2Br)o1)c1nc(C)cs1 | inactive: 116%
19 | CCc1nn2c(=O)c(S(=O)(=O)Nc3ccc(C)cc3C)c(C)nc2s1 | inactive: 75%
20 | COc1ccc(-c2nc(CSCC(=O)NCCc3ccc(OC)c(OC)c3)c(C)o2)cc1 | inactive: 85%
21 | Cc1sc(NC(=O)C2c3ccccc3Oc3ccccc32)c(C(=O)OC(C)C)c1C | inactive: 62%
22 | Cc1ccc(S(=O)(=O)c2nnn3c2nc(N(C)Cc2ccccc2)c2cc(Cl)ccc23)cc1C | inactive: 125%
23 | COc1ccccc1CNC(=O)c1cc2cccc3c2n1CCS3 | inactive: 78%

Row | SMILES | survival
24 | CCCCCc1nc2ccccc2c(=O)n1N | inactive: 115%
25 | CC(C)NC(=O)C1=CC(c2ccc3c(c2)OCO3)=NS(=O)(=O)N1C | inactive: 87%
26 | Cc1cc(NCCN(C)C)n2nc(C)c(-c3ccccc3)c2n1 | inactive: 110%
27 | COc1ccc(-c2nnn(CC(=O)N(Cc3ccco3)C(C(=O)NCC3CCCO3)c3ccco3)n2)cc1 (centres undefined) | inactive: 107%
28 | CC1CCN(c2nc3ccccc3nc2SCC(=O)Nc2ccccc2C(C)C)CC1 | active: -16%
29 | CCCN1CCN(c2ncnc3sc(C(=O)Nc4ccc(OC(F)(F)F)cc4)c(C)c23)CC1 | inactive: 83%
30 | Cc1nnc(N2CCCC(C(=O)Nc3cc(F)ccc3F)C2)c2nn(-c3ccccc3)c(C)c12 (centres undefined) | inactive: 89%
31 | CCCCC(=O)OCc1cc(=O)n2nc(C3CC3)sc2n1 | inactive: 135%
32 | CCCCN(CC)CCCNC(=O)c1ccc2c(c1)N(Cc1ccc(C)cc1)C(=O)c1ccccc1S2 | inactive: 87%
33 | O=C(CS(=O)(=O)c1cccc2nsnc12)N1CCN(c2ccc(F)cc2)CC1 | inactive: 97%
34 | CC(=O)c1ccc(NC(=O)Cn2c(=O)nc(-c3ccccc3)c3ccccc32)cc1 | inactive: 70%
35 | COc1cc(NC(=O)COCc2cc(-c3ccc4c(c3)OCO4)on2)c(OC)cc1Cl | inactive: 101%
36 | CCOc1ccc(C(=O)c2cn(CC(=O)Nc3ccc(C)c(Cl)c3)c3ccc(OCC)cc3c2=O)cc1 | inactive: 90%
37 | CCOc1ccc(CCNC(=O)c2cc3n(n2)CCCN(Cc2ccc(C)cc2)C3=O)cc1OCC | inactive: 118%
38 | Cc1cc(-c2ccc(C)c(S(=O)(=O)Nc3ccc(C)c(N(C)C)c3)c2)on1 | inactive: 71%
39 | O=C(NC1(C(F)(F)F)N=C(c2ccccc2)N(Cc2ccccc2)C1=O)c1ccc(F)cc1 (centres undefined) | inactive: 77%
40 | O=C(CCCc1nc(-c2ccc(Cl)cc2)no1)NCc1ccco1 | inactive: 88%
41 | CCN(CC)c1cc(NC2CCCCC2)c2c3c(onc13)-c1ccccc1C2=O | active: 5%
42 | CC1CCN(S(=O)(=O)c2ccc3c(c2)N(CC(=O)N(C)Cc2ccccc2)C(=O)CO3)CC1 | inactive: 91%
43 | Cn1cnc(S(=O)(=O)N2CCC(C(=O)Nc3ccc(OC(F)(F)F)cc3)CC2)c1 | inactive: 83%
44 | C/C(=N\NC(=O)C(F)(F)F)c1ccccc1O | inactive: 112%
45 | O=C(c1ccc2c(c1)N(Cc1ccccc1)C(=O)c1ccccc1S2(=O)=O)N1CCC(Cc2ccccc2)CC1 | inactive: 80%
46 | Cc1cc(C)c(NC(=O)Cn2nnc3sc4c(c3c2=O)CCC(C(C)(C)C)C4)c(C)c1 (centres undefined) | inactive: 83%

Row | SMILES | survival
47 | Cc1ccccc1CN1C(=O)C(O)(c2c[nH]c3ccccc23)c2cc(Cl)ccc21 (centres undefined) | active: -11%
48 | COc1cccc(CNC(=O)C2CCCN(c3nn4cc(-c5ccc(C)cc5)nc4s3)C2)c1 (centres undefined) | inactive: 80%
49 | O=c1c2sc3ccccc3c2n(Cc2cccc(Cl)c2)c(=O)n1Cc1ccc(F)cc1 | inactive: 80%
50 | Cc1nc2cc3ccccc3cc2c(=O)[nH]1 | inactive: 110%
51 | CCCCN1C(C(=O)c2ccccc2)=C(OC(=O)CC)c2ccccc2S1(=O)=O | active: 0%
52 | COc1cc(C2c3c(-c4ccccc4O)n[nH]c3C(=O)N2Cc2ccncc2)cc(OC)c1OC (centres undefined) | inactive: 89%
53 | N#Cc1c(NC(=O)c2ccco2)sc2c1CCCC2 | inactive: 104%
54 | COc1ccc(CNC(=O)C2CCN(C(=O)N3CCOc4ccc(C)cc43)CC2)cc1 | inactive: 80%
55 | CC(C)Cn1c(SCC(N)=O)nc2ccccc2c1=O | inactive: 99%
56 | CCc1cc(C(=O)N2CCN(c3ccccc3)CC2)no1 | inactive: 69%
57 | CC1CCCN(C(=O)c2ccc(CSc3nc4ccncc4n3Cc3ccccc3)cc2)C1 (centres undefined) | inactive: 107%
58 | O=C(NCc1ccc(Cl)cc1)c1cc2cccc3c2n1CCS3 | inactive: 73%
59 | N#C/C(=C\Nc1ccccc1O)c1nc2ccccc2o1 | inactive: 41%
60 | Cc1nnc(SCCNS(=O)(=O)c2ccccc2)s1 | inactive: 107%
61 | Cc1cccc(-n2c(=O)c3c(c4cc(C)ccc4n3C)n(CC(=O)Nc3ccc(C)c(C)c3)c2=O)c1 | inactive: 71%
62 | COc1ccccc1N1CCN(c2c3c(nc4nncn24)CCC3)CC1 | inactive: 87%
63 | CC(C)(C)NC(=O)Cn1cc(S(=O)(=O)Cc2ccccc2Cl)c2ccccc21 | inactive: 68%
64 | Cc1cccc(NC(=O)Cn2c(=O)n(Cc3nc(-c4ccccc4)no3)c(=O)c3ccccc32)c1 | inactive: 69%
65 | COC(=O)c1sccc1S(=O)(=O)N(CC(=O)NCc1ccc(F)cc1)c1ccccc1 | inactive: 69%
66 | COc1ccc(C)cc1NS(=O)(=O)c1ccc2c(c1)CCCN2C(C)=O | inactive: 131%
67 | C=C(C)CC1N(CCc2ccccc2)C(=O)C2C(C(=O)O)C3C=CC21O3 (centres undefined) | inactive: 111%
68 | CCOC(=O)Cn1c(=N)n(CCOc2ccc(OC)cc2)c2ccccc21 | inactive: 70%
69 | COc1ccc(-c2nc(SCC(=O)NCC3CCCO3)c(-c3ccc(C)cc3)[nH]2)cc1OC (centres undefined) | inactive: 73%

Row | SMILES | survival
70 | CCCCNC(=O)CN1CCN(c2ccc(NC(=O)c3ccc(OC)cc3)cc2C(=O)O)CC1 | inactive: 80%
71 | COc1ccc(NC(=O)N2CCN(Cc3nc4ccc(C)cc4o3)CC2)cc1OC | inactive: 99%
72 | CN(C)c1ccc(-c2nnc(-c3cccnc3)o2)cc1 | inactive: 109%
73 | COc1ccc(-c2c(C#N)c(SCC(=O)Nc3ccc(C)c(C)c3)nc(C)c2C(=O)Nc2ccccc2)cc1OC | inactive: 85%
74 | Cc1ccc(N(C)S(=O)(=O)c2nnc(NC(=O)c3ccco3)s2)cc1 | inactive: 69%
75 | COc1cc2nc(NC(=O)c3ccc(S(=O)(=O)N4CCOCC4)cc3)sc2cc1OC | inactive: 79%
76 | O=C(CSc1nc2sc3c(c2c(=O)[nH]1)CCCC3)NCc1cccs1 | inactive: 99%
77 | O=C1CN=C(Nc2ccccc2Cl)N1Cc1ccccc1 | inactive: 107%
78 | CCCS(=O)(=O)N1CC(=O)N(c2ccc(Cl)cc2C)C(C)(C(=O)NC2CCCC2)C1 (centres undefined) | inactive: 127%
79 | Cc1ccc(OC(=O)c2ccc3snnc3c2)cc1 | inactive: 109%
80 | COc1ccc(NC(=O)CSC2=Nc3ccccc3C3=NC(CCC(=O)NC4CCCCC4)C(=O)N23)cc1 (centres undefined) | inactive: 81%
81 | CC(=O)N1CCN(c2ccccc2F)CC1 | inactive: 107%
82 | CCOC(=O)c1cccc(NC(=O)CCn2c(-c3ccc(F)cc3)cc(C(=O)OCC)c2C)c1 | inactive: 81%
83 | CCC(SC1=NCCS1)C(=O)Nc1ccccc1OC (centres undefined) | inactive: 98%
84 | O=c1[nH]c2cc3c(cc2cc1C(c1nnnn1C1CCCC1)N1CCc2ccccc21)OCCO3 (centres undefined) | inactive: 104%
85 | CC(=O)c1cccc(NC(=O)C2CCN(S(=O)(=O)c3ccc4c(c3)oc(=O)n4C)CC2)c1 | inactive: 90%
86 | COc1c(C)cccc1C(=O)Nc1cccc2ccc(C)nc12 | active: -14%
87 | O=C(CSCc1ccccc1Cl)N1CCN(c2ccc(Cl)cc2)CC1 | inactive: 81%
88 | CC1CCCCN1S(=O)(=O)c1ccc(S(=O)(=O)NCc2ccc(F)cc2)cc1 (centres undefined) | inactive: 109%
89 | COc1ccc(Cn2ccn(Cc3cccc(OC)c3)c(=O)c2=O)cc1 | inactive: 82%

— PubChem BioAssay AID463173 (ICCB-Longwood Screening Facility, Harvard Medical School, 2010)
